Results on 60 compounds are retold here after PubChem BioAssay AID1956 (SRMLSC, 2009).

Some of the results follow. The main result of the screen is listed elsewhere. These columns were measured beside it and carry no call.

This test can be described thus: compounds boosting herpes simplex virus growth – fold increase, host cell viability (AID 1956). Further: tested in PC3 cells. To be noted: HSV replication augmentation in cells; fold increase: measured here: primary screen fold increase 10 uM, at 10 µM, stronger effect = higher value; viability: measured here: host cell viability series, at 25 µM, stronger effect = lower value.
The term viability denotes a read-out of living cells in per cent, often relative to untreated cells. Consider `COc1ccc(CCNC(=S)N(C)C)cc1OC`, for which the fold increase stood at 1.35 and the viability came out at 104%.

In the case of `COc1ccc2c3c([nH]c2c1)C1CC2C(CC(O)C(OC)C2C(=O)O)CN1CC3` (centres undefined), the fold increase turned out to be 1.26 and the viability was determined as 98.6%.

On to `Nc1c(C(=O)Nc2ccc(S(=O)(=O)N3CCCC3)cc2)sc2nc3cc4c(cc3cc12)CCC4`, for which the fold increase came out at 1.77 and the viability came out at 10.9%.

Turning to `O=C(O)c1ccc(COc2ccccc2C=C2C(=O)c3ccccc3C2=O)cc1`, the fold increase was 1.84 and the viability came to 91.7%.

In the case of `Cc1ccccc1-n1c(Cn2c(=O)sc3ccccc32)nnc1SCC(=O)Nc1nccs1`, the fold increase was found to be 1.39 and the viability amounted to 93.3%.

With `CC1(C)CC(=O)C(C=Nc2ccc(C(=O)c3ccccc3)cc2N=CC2=C(O)CC(C)(C)CC2=O)=C(O)C1`, the fold increase was found to be 1.55 and the viability worked out at 73.9%.

The compound `Cc1cc(C(=O)Nc2nc3c(C)cccc3s2)c(C)o1` came in with a fold increase of 1.1.

As for `COC(=O)c1c(NC(=O)CN2CCCc3ccccc32)sc(C)c1C`, the fold increase stood at 1.61 and the viability stood at 91.3%.

Turning to `CCOC(=O)c1sc2cc([N+](=O)[O-])cc(SCC(C)C)c2c1N`, the fold increase was determined as 3.6 and the viability came to 103%.

Take `Cc1c(-n2cc(C(=O)c3cc(F)ccc3O)cc(C#N)c2=O)c(=O)n(-c2ccccc2)n1C`: the fold increase was 1.77 and the viability was 92.7%.

`Cc1c(N=C2N=C(NC(=O)c3ccc(F)cc3)c3ccccc32)c(=O)n(-c2ccccc2)n1C` showed a fold increase of 3.41.

With `O=C(/C=C/c1cn(CC(O)CN2CCCCC2)c2ccccc12)c1cccs1` (centres undefined), the fold increase came out at 1.47 and the viability is 36%.

For `CCCCN1C(=O)/C(=C/C=C2/CC(C)(C)CN2C)SC1=S`, the fold increase was determined as 6.16.

As to `O=C(COc1cccc2ccccc12)N/N=C/c1ccncc1`, the fold increase came to 1.34 and the viability came to 92.9%.

As to `Cc1cc(N2CCCC2)ccc1/C=C1/C(=O)N(C)C(=S)N1C`, the fold increase came out at 9.58 and the viability turned out to be 67.4%.

As for `O=C1c2ccccc2S(=O)(=O)c2cc(N3CCC4(CC3)OCCO4)ccc21`, the fold increase came out at 1.71 and the viability worked out at 98.5%.

On to `Nc1c(Cl)ncnc1N/N=C/c1ccc2ccccc2n1`, for which the fold increase was determined as 1.52 and the viability amounted to 8.48%.

In turn, `COc1ccc(-c2nncnn2)cc1` showed a fold increase of 4.43.

As for `Nc1cccc(S(=O)(=O)Nc2ccc(Br)cc2)c1`, the fold increase is 1.34 and the viability stood at 87.4%.

For `CC(C)(C)c1nc(CN2CCOCC2)ccc1O`, the fold increase amounted to 1.44 and the viability was determined as 94.2%.

`Cc1ccc(Cn2c(CN3CCOCC3)nc3c2c(=O)[nH]c(=O)n3C)cc1`: the fold increase was found to be 1.36 and the viability amounted to 98%.

Take `CCOc1ccc(C2CC(c3c(O)c4ccccc4oc3=O)=NN2c2ccccc2)cc1OC` (centres undefined): the fold increase was determined as 1.65 and the viability turned out to be 93.5%.

On to `Cc1ccc(C(=O)N2CCCC(c3nc4c(nnn4Cc4ccccc4)c(=O)[nH]3)C2)cc1` (centres undefined), for which the fold increase came out at 1.38 and the viability turned out to be 96.9%.

Take `CC(=O)Nc1ccc(S(=O)(=O)NC2(C(F)(F)F)N=C(c3ccccc3)NC2=O)cc1` (centres undefined): the fold increase came out at 1.62 and the viability was found to be 91.2%.

In turn, `COc1ccccc1-c1cc(C(=O)N/N=C/C=C/c2ccccc2[N+](=O)[O-])c2ccccc2n1` had a fold increase of 1.18.

For `C[N+]1=C(/C=C/Nc2ccccc2Cl)C(C)(C)c2ccccc21`, the fold increase was found to be 1.69 and the viability was 59.2%.

For the compound `CC1=C/C(=C\C=C(C#N)C#N)N(C)c2ccccc21`, the fold increase came out at 4.8 and the viability was 95.7%.

With `CCCc1nc2oc3cc(OC)ccc3c(=O)c2c(=O)n1Cc1ccco1`, the fold increase came to 1.71 and the viability is 102%.

For the compound `CCOC(=O)C1=C(CSc2nc(-c3ccccc3)ccc2C#N)OC(N)=C(C#N)C1c1cccnc1` (centres undefined), the fold increase was 1.74 and the viability turned out to be 93.2%.

Regarding `CCN1/C(=C/c2ccc3cc(C)ccc3[n+]2CC)Sc2ccccc21`, the fold increase was determined as 7.5 and the viability came out at 20.4%.

Regarding `CC(=O)c1cc(NC(=O)c2ccc(C)cc2)c(=O)oc1/C=C/N(C)C`, the fold increase was 1.09 and the viability was determined as 88.6%.

For `Cc1cc(=O)[nH]c(N2CCOCC2)n1`, the fold increase amounted to 1.42 and the viability was found to be 95.3%.

Take `COc1ccc(C2CC(c3ccco3)n3ncnc3N2)cc1` (centres undefined): the fold increase was determined as 2.02 and the viability turned out to be 99.3%.

`Clc1nc(-c2ccccc2)cc(-c2ccc(Br)cc2)n1`: the fold increase turned out to be 1.45 and the viability came out at 96.6%.

As for `CC1(C)CC(=O)C(C=NCCN2CCN(C(=S)Nc3ccc(F)cc3)CC2)=C(O)C1`, the fold increase was determined as 1.39 and the viability came to 92.9%.

`CCN1c2ccccc2NC2C1C(C(C)=O)C(=O)N2c1ccc(Cl)cc1` (centres undefined): the fold increase was found to be 1.35 and the viability was 89.7%.

Turning to `Fc1ccc(Br)cc1C1C=C(c2ccc(Br)cc2)Nc2ncnn21` (centres undefined), the fold increase was determined as 1.88 and the viability was 50.5%.

On to `COc1cccc(C2=CC(c3ccc(C)cc3)n3ncnc3N2)c1` (centres undefined), for which the fold increase came out at 1.43 and the viability amounted to 87.3%.

Turning to `O=C1/C(=C/c2ccc(N3CCCC3)cc2)NC(=S)N1C1CC1`, the fold increase is 1.83 and the viability came out at 88.6%.

Take `NCCn1c(-c2ccccc2)cc(C(=O)O)c1-c1ccccc1F`: the fold increase came to 1.42 and the viability was 93%.

In turn, `CCn1c(NN)nc2sc3c(c2c1=O)CCC3` displayed a fold increase of 1.39.

Consider `COC(=O)C1=C(C(=O)c2ccc(C)cc2)C(c2ccc(O)c(OC)c2)n2nnnc2N1` (centres undefined), for which the fold increase turned out to be 1.95 and the viability stood at 99.1%.

Regarding `CC[n+]1c(/C=C/C=C/N(C(C)=O)c2ccccc2)sc2cc(OC)ccc21`, the fold increase turned out to be 4.07 and the viability is 44.9%.

Consider `CCN(CC)c1ccc(/C=C2\SC(=O)N(C(C)C)C2=O)o1`, for which the fold increase stood at 1.54 and the viability is 89.5%.

`CC(C)(C)SCCNS(=O)(=O)c1ccc(C#N)cc1`: the fold increase was found to be 1.42 and the viability came out at 97.5%.

As to `O=S(=O)(c1cccc(-c2cn3cc(Cl)ccc3n2)c1)N1CCOCC1`, the fold increase was 1.43 and the viability came to 93%.

As for `COc1ccccc1-n1c(SCC(=O)Nc2ccc(C)cc2)nc(O)cc1=O`, the fold increase worked out at 1.32 and the viability was determined as 97.5%.

As to `CSc1nc(Cl)c(Cc2ccc(OC(C)C)cc2)c(N(C)C)n1`, the fold increase is 1.43 and the viability stood at 62.5%.

Consider `CCOC(=O)c1c(CN2CCCCC2)n(C)c2cc(Br)c(O)cc12`, for which the fold increase came out at 1.48 and the viability turned out to be 82.1%.

Consider `COc1cccc2[nH]c3c(N4CCC(C)CC4)ncnc3c12`, for which the fold increase was determined as 1.36 and the viability was 85.8%.

For the compound `O=[N+]([O-])c1ccc(/C=C/C2=NN(c3ccccc3)C(c3ccco3)C2)cc1` (centres undefined), the fold increase worked out at 7.15 and the viability came out at 91.2%.

Regarding `Cc1c(=O)n(OCc2ccccc2)c2ccccc2[n+]1[O-]`, the fold increase was 3.57 and the viability was determined as 97.2%.

With `c1ccc(N2CCN(c3nc4ccccc4n4nnnc34)CC2)cc1`, the fold increase stood at 1.54 and the viability is 88%.

On to `CN1/C(=C\C(=S)NC(=O)c2cccc(Br)c2)C(C)(C)c2ccccc21`, for which the fold increase was found to be 1.67 and the viability is 56.2%.

Take `COc1cc(C2C(C#N)=C(N)Oc3n[nH]c(-c4cccs4)c32)cc(OC)c1O` (centres undefined): the fold increase came out at 1.34 and the viability came out at 89.8%.

Consider `OC(CNCc1ccccc1)c1ccccc1` (centres undefined), for which the fold increase is 1.37 and the viability stood at 96.8%.

`CCOC(=O)CCSc1nc(C)cc(C(F)(F)F)c1C#N`: the fold increase stood at 1.62 and the viability was 98.8%.

For the compound `O=C1c2cccc3c([N+](=O)[O-])ccc(c23)C(=O)N1c1ccccn1`, the fold increase was 2.44 and the viability stood at 1.67%.

As to `Fc1ccc(-n2c(-c3ccco3)nc3nc4ccccc4nc32)cc1`, the fold increase is 1.58 and the viability is 92.3%.

`O=C(O)CSCC(=O)Nc1ccc(C2CCCCC2)cc1`: the fold increase worked out at 1.43 and the viability was 94.4%.
